PubChem BioAssay AID1346428 (National Center for Advancing Translational Sciences (NCATS), 2018)
In all, about 48,000 compounds went through this assay and about 1,200 (2.5%) were called active. Roughly 2% stayed inconclusive and do not appear here.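 How the source made its calls: active means activation of at least 60% and not above a set upper limit (about 1 call in 100 departs from these limits); inconclusive means activation of 40% to 60%, or above that upper limit; inactive means activation under 40%.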 The list shows a part of the results.

Each molecule was assayed against Probable G-protein coupled receptor 32 (Homo sapiens) (UniProt O75388) (assay: qHTS for Agonists of Human Resolvin D1 Receptor DRV1). Conditions: CHO-K1 GPR32 beta-arrestin PathHunter luminescence, 90 min; at 76.9 µM; hits give high values; zero percent set by DMSO-only wells.
Summary of the method: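 CHO-K1 cells stably expressing ProLink-tagged GPR32 and Enzyme Activator-tagged beta-arrestin were seeded at 2,500 cells/well overnight, exposed to compounds for 90 min at 37 °C, then read by beta-Gal complementation chemiluminescence after 1 h detection reagent.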
Further: 0% is about no effect.

Chain of UniProt O75388 (O75388 whole entry, looked up): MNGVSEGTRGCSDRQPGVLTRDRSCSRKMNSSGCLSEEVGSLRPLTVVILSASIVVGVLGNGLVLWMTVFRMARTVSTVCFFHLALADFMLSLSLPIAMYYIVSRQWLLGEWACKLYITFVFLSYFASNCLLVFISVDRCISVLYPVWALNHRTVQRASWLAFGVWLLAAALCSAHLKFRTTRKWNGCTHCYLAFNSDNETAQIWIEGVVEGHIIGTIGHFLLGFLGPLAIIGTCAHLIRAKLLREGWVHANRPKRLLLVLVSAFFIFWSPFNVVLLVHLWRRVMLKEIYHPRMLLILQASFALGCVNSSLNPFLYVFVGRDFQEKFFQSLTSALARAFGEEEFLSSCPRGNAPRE

activation, inactive:
CCCCN1C(=O)c2[nH]nc(-c3ccccc3O)c2C1c1ccc(OCc2ccccc2)cc1 (configuration not stated) 42.1%
CC1CCN(S(=O)(=O)c2ccc3c(c2)c(=O)c(C(=O)NCCc2ccccc2)cn3C)CC1 -8.47%
CN(C)CCNC(=O)c1ccc2c(c1)NC(=O)C(CS(=O)(=O)Cc1cccc(Br)c1)N2 (configuration not stated) -6.58%
Cc1ccc(S(=O)(=O)N2CCCc3cc(NS(=O)(=O)c4cccc(Cl)c4)ccc32)cc1 -11.4%
COc1ccccc1CNC(=O)c1c(O)nc2c(C)cccn2c1=O -6.03%
COc1ccc2c(c1)cc1c(=O)n(CC(=O)NC(C)C)nc(C)n12 -3.75%
CC(=O)c1ccc(NC(=O)CSc2nnc3ccc(-c4ccc(Br)cc4)nn23)cc1 0.941%
COc1ccccc1CNC(=O)CN(C)c1nn2c(=O)cc(C)nc2s1 1.75%
CCc1ccc(NC(=O)C2CCCN2S(=O)(=O)c2ccc3c(c2)n(C)c(=O)c(=O)n3C)cc1 (configuration not stated) -3.76%
COc1ccccc1NC(=O)CCC(=O)N1CC(C)Oc2ccc(C)cc21 (configuration not stated) -16.1%
Cc1ccc(Nc2sc(C(=O)c3ccccc3)c(N)c2C(=O)Nc2ccc(Cl)cc2)cc1 -85.4%
COc1cc2c(cc1OC)n(CC(=O)c1cccc(Cl)c1)c(=O)n1nc(CCn3nc(C)cc3C)nc21 -3.6%
CCOCCCNC(=O)c1cc(Sc2cccc(Cl)c2)nc2ccccc12 14.1%
COc1ccc(-c2cn3nc(N4CCCC(C(=O)Nc5cccc(OC)c5)C4)sc3n2)cc1 (configuration not stated) -10.8%
O=C(CCN1C(=O)c2ccccc2Sc2ncccc21)Nc1ccc(F)cc1F -13.8%
COc1ccc(C2NC(=O)NC(C)=C2C(=O)Nc2ccccc2)cc1OC (configuration not stated) -12.7%
COc1cccc(C(=O)N2c3ccc(C)cc3C(C)(c3ccccc3)CC2(C)C)c1 (configuration not stated) -80.8%
Cc1ccccc1C(=O)Nc1sc2c(c1C(=O)N1CCCCC1)CCC(C)C2 (configuration not stated) -24.2%
Cc1ccc(CC(=O)Nc2ccc3c(c2)N(C)C(=O)c2ccccc2S3)cc1 -10.1%
Cc1ccc(-n2nc3c(N4CCCC(C(=O)NCc5ccc(Cl)cc5)C4)nnc(C)c3c2C)cc1 (configuration not stated) 25.6%
COC(=O)c1ccc2c(c1)N(CC(=O)Nc1ccc(OC)c(Cl)c1)C(=O)c1ccccc1S2 -4.73%
CCn1c(=O)c2sccc2n2c(CCCC(=O)N3CCN(c4cccc(Cl)c4)CC3)nnc12 5.21%
Cc1ccc(-c2nn3c(=O)cc(CN4CCN(C(=O)/C=C/c5ccccc5)CC4)nc3s2)cc1 -9.78%
CCOC(=O)c1ccc(NC(=O)C(Cc2ccccc2)N2Cc3ccccc3C2=O)cc1 (configuration not stated) -7.82%
CCCOc1ccc(C(=O)Nc2ccc3oc(-c4cccc(Cl)c4Cl)nc3c2)cc1 -6.54%
CCOC(=O)c1ccc(NC(=O)CSc2cn(CC(=O)N3CCCC3)c3ccccc23)cc1 -13.3%
CCc1ccc(-c2cn3c(n2)sc2cc(C(=O)NCCC4=CCCCC4)ccc23)cc1 -11.7%
CC(C)c1ccc(NC(=O)Cn2cc(S(=O)(=O)Cc3cccc(Cl)c3)c3ccccc32)cc1 -6.52%
O=C(CCS(=O)(=O)c1nc(-c2cccs2)cc(C(F)(F)F)n1)Nc1cc(Br)ccc1O -13.1%
COc1ccc(C(=O)Nc2nc3n(n2)C(c2ccccc2)C=C(c2ccccc2)N3)cc1 (configuration not stated) 12.6%
Cc1ccc(NC(=O)Cn2c(=O)n(Cc3nc(C)no3)c(=O)c3cc4c(cc32)OCO4)c(C)c1 -7.19%
CCCn1c(SCc2nc(-c3ccccc3OCC)no2)nnc1-c1ccc(Cl)cc1 -15.5%
CCOc1ccccc1C(=O)N(Cc1cc(OC)c(OC)c(OC)c1)c1ccccn1 -4.21%
N#Cc1nc(COc2cccc(Cl)c2)oc1NCCc1ccccc1 2.22%
CC(C)c1ccc(NC(=O)CSc2nc(=O)n(Cc3ccccn3)c3c2CCC3)cc1 -12.9%
Cc1c(C(=O)NN2CCCCC2)nn(-c2ccc(Cl)cc2Cl)c1-c1ccc(Cl)cc1 -19.7%
CCN(CC)S(=O)(=O)c1ccc(NC(=O)[C@H](CCSC)N2Cc3ccccc3C2=O)cc1 7.99%
Cc1ccc(S(=O)(=O)c2nnn3c2nc(N2CCCCC2)c2sccc23)cc1 -21.7%
CCn1ccc2cc(S(=O)(=O)N3CCCN(C(=O)Nc4ccc(C)cc4)CC3)ccc21 22.1%
Cc1cccc(Cn2c(-c3cccs3)nc3ccccc32)c1 -9.05%
CCOc1ccc(Cn2c(CNS(=O)(=O)c3cccs3)nc3cccnc32)cc1 -17.7%
Cn1c(=O)c2c(nc(SCC(=O)Nc3ccc(F)cc3)n2Cc2ccc(Cl)cc2)n(C)c1=O 0.276%
Cc1cc(C)cc(N(C)S(=O)(=O)c2nnc(NC(=O)COc3ccc(Cl)cc3)s2)c1 22.6%
CC(=O)c1cccc(NC(=O)CN2C(=O)CN(C)C(=O)c3ccccc32)c1 -2.27%
CCc1nc(SCc2cc(=O)c3cc(F)ccc3[nH]2)n[nH]1 2.42%
Cc1ccc(N2CCN(c3cc(C)nc4c(-c5ccc(Cl)cc5)c(C)nn34)CC2C)cc1 (configuration not stated) -2.08%
NC(=O)Cn1c(=O)n(-c2ccc(F)c(Cl)c2)c(=O)c2sc3ccccc3c21 2.74%
CCOc1ccc(NC(=O)c2ccc3c(c2)c(C)c(C)n3Cc2ccc(F)cc2)cc1 -11.5%
Cc1cn2c(=O)c(S(=O)(=O)NC(C)c3ccccc3)c(C)nc2s1 (configuration not stated) -7.39%
Cc1ccc(NC(=O)Cn2ncc3c4ccccc4n(Cc4ccccc4)c3c2=O)cc1Cl -3.3%
COc1ccc(C(=O)Nc2nc3nc(C)c(Cl)c(=O)n3[nH]2)cc1 5.27%
Cc1oc(-c2ccccc2Cl)nc1CS(=O)(=O)CC(=O)NC(C)CCc1ccccc1 (configuration not stated) 23.7%
